Out of some 150,000 compounds screened, about 540 (0.36%) showed an effect of 50% or more. The list shows a part of the results.

This assay relates to Plasmodium falciparum. Kind of assay: Primary screen in NF54 nanoGlo assay, in single point, at 2uM, 72h; a lower Z score goes with more inhibition. Type of assay: functional, Erythrocyte. To be noted: timepoint 72 hour.
Usually % Inhibition stands for the relative decrease from the control value, in per cent. Regarding `COc1ccc2oc([C@H](C)Nc3cc(-n4cccn4)nc(N)n3)c(C)c2c1`, the “% Inhibition” value is on record as -3% and the Z score was found to be 0.74.

For the molecule `CCCN1CCC(NC(=O)c2cc(-c3ccccc3Cl)[nH]n2)CC1`, the “% Inhibition” value is listed as -3% and the Z score is on record as 0.4.

For the molecule `Cc1nc2ccc(CNc3nnc(CCc4ccccc4)o3)cc2s1`, the “% Inhibition” value is -1% and the Z score was 0.2.

For the molecule `COc1cc(CN2CC(c3noc(C)n3)C2)ccc1OC(C)C`, the “% Inhibition” value turned out to be 1% and the Z score is reported as -0.24.

Regarding `Cc1nc(CN2CCC[C@H](N(C)c3ncnc4[nH]ccc34)C2)no1`, the “% Inhibition” value amounted to 8% and the Z score is recorded as -1.44.

In the case of `COc1cccc(OCCN2CCN(c3nc(NCc4ccco4)c4ccccc4n3)CC2)c1`, the “% Inhibition” value was -13% and the Z score was determined as 1.97.

In the case of `CN1CCC(NC[C@H]2CCN(CC(F)(F)F)C2)CC1`, the “% Inhibition” value was -3% and the Z score was 0.5.

Consider `CCCNc1cc(N2CCCC(CCC(=O)NCC3CCCN3CC)C2)ncn1` (centres undefined), for which the “% Inhibition” value came out at 4% and the Z score was -0.86.

For the molecule `Clc1cccnc1OC1CCC(NCc2ccc(N3CCCC3)nc2)CC1` (centres undefined), the “% Inhibition” value is recorded as -2% and the Z score is 0.25.

Regarding `CN(C)CCCN1CCN(Cc2cc3ccccc3[nH]2)CC1`, the “% Inhibition” value is given as 13% and the Z score is reported as -2.23.

For the molecule `Fc1cccc(Cl)c1CN1CCC(NC[C@H]2CCCOC2)CC1`, the “% Inhibition” value was 46% and the Z score was -9.19.

For the molecule `OC1(Cn2ccnc2)CCN(Cc2cnc(NC[C@H]3CCCO3)nc2)CC1`, the “% Inhibition” value is recorded as -7% and the Z score came to 1.01.

As to `COc1ccc2nc(C(=O)NCC3CCN(C4CCOCC4)CC3)ccc2c1`, the “% Inhibition” value was determined as 10% and the Z score is on record as -2.16.

For `Cc1cccc([C@H]2C(=O)NCCN2Cc2cnc3n2CCOC3)c1`, the “% Inhibition” value is listed as -11% and the Z score amounted to 2.11.

Consider `CC1(C)CC(Nc2nn3cnnc3c3ccccc23)CC(C)(C)N1`, for which the “% Inhibition” value is recorded as -4% and the Z score worked out at 0.66.

As to `O=C(NCCN1CCCCC1)c1ccccc1OC1CCN(Cc2ccccn2)CC1`, the “% Inhibition” value is listed as 0% and the Z score worked out at 0.

Take `N#CC1(NC(=O)c2cccc(S(=O)(=O)N3CCC(c4ncc[nH]4)CC3)c2)CCCC1`: the “% Inhibition” value was -2% and the Z score came to 0.45.

On to `CN1CCN(c2ccc(F)cc2C(=O)NCCc2ccc3cn[nH]c3c2)CC1`, for which the “% Inhibition” value is -12% and the Z score is on record as 2.68.

Consider `CNC(=O)NCc1cn([C@@H](C)c2cc(C)ccc2OC)nn1`, for which the “% Inhibition” value is reported as -2% and the Z score is given as 0.49.

Take `CCOc1ccccc1[C@@H]1c2[nH]c3ccccc3c2CCN1C(=O)CN1CCOC1=O`: the “% Inhibition” value is on record as -3% and the Z score was found to be 0.62.

Take `Cc1cc(NCc2ccccc2F)n2nccc2n1`: the “% Inhibition” value is 3% and the Z score is -0.59.

Take `Cc1cc(N2CCN(C(=O)[C@H]3CCCN(C(C)C)C3)CC2)nc(N)n1`: the “% Inhibition” value stood at 2% and the Z score was -0.45.

As for `Cc1cccc(Nc2nc(N)nc(CN3CCC[C@H](c4nc(CC(C)C)no4)C3)n2)c1`, the “% Inhibition” value is -12% and the Z score worked out at 2.11.

Consider `COc1ccc(F)c(CNc2nc(N)nc3c2CCCC3)c1F`, for which the “% Inhibition” value was 8% and the Z score is listed as -1.73.

Consider `C[C@@H](c1ccc(-c2[nH]nc3ccccc23)cc1)N1CCOCC1`, for which the “% Inhibition” value is -4% and the Z score was 0.59.

As to `CN1CCN(C[C@@H](O)CN(C)CC(=O)N2CCCCCC2)CC1`, the “% Inhibition” value is -6% and the Z score came out at 1.39.

As to `Brc1cnccc1O[C@H]1CCN(c2ncnc3cnccc23)C1`, the “% Inhibition” value is 2% and the Z score was -0.33.

In the case of `FCC1CN(Cc2c[nH]c3ccccc23)CC1c1n[nH]c(C2CC2)n1` (centres undefined), the “% Inhibition” value is on record as -10% and the Z score is 1.77.

As to `CC[C@H]1C(=O)NCCCN1C(=O)CN1CCc2ccccc2C1=O`, the “% Inhibition” value is -3% and the Z score is 0.63.

Consider `O=C(Nc1ccccc1)NS(=O)(=O)c1ccc(Nc2cccc(Cl)c2)nc1`, for which the “% Inhibition” value is recorded as -6% and the Z score is recorded as 0.87.

Regarding `Cc1c(F)cc(C(N)=O)cc1NS(=O)(=O)CCc1ccc2c(c1)CCO2`, the “% Inhibition” value is -7% and the Z score is given as 1.24.

In the case of `CN(C1CCN(Cc2ccccn2)CC1)[C@H]1CCCN(CCCc2ccccc2)C1`, the “% Inhibition” value is -7% and the Z score is listed as 1.16.

For the molecule `COc1cccc(-n2cc(CN(C)Cc3nc(C(N)=O)no3)cn2)c1`, the “% Inhibition” value was 3% and the Z score is reported as -0.58.

On to `CCOc1cc(C(=O)NC2CCN(CC3CCCC3)CC2)cc(-c2ccccc2)c1OC`, for which the “% Inhibition” value was found to be 71% and the Z score is listed as -12.46.

With `COc1ccnc(N2CCN(c3nccc(-c4cnccn4)n3)CC2)c1`, the “% Inhibition” value is -16% and the Z score turned out to be 3.46.

For the molecule `Cc1oc(-c2cnn(C)c2)nc1C(=O)Nc1ncc(C2CCNCC2)s1`, the “% Inhibition” value is given as -19% and the Z score was 3.25.

In the case of `OC1COCC1N1CCCN(C2CCC3(CCNCC3)CC2)CC1` (centres undefined), the “% Inhibition” value is -9% and the Z score is on record as 1.32.

With `CCOC(=O)[C@H]1CCCN(c2ccc(-c3cnn(CCOC)c3)cn2)C1`, the “% Inhibition” value is -11% and the Z score is listed as 1.66.

Consider `Cn1ncc2c(N)nc(NCc3csc(-c4cnccn4)n3)nc21`, for which the “% Inhibition” value came out at 6% and the Z score is listed as -0.86.

Regarding `O=C(Cc1cccc(F)c1)Nc1ccc(N2CCC(N3CCCN(c4ncccn4)CC3)CC2)cc1`, the “% Inhibition” value was -8% and the Z score was determined as 1.38.

For the molecule `c1cc(-c2nc(C3CN4CCCCC4CO3)no2)ccc1CN1CCCC1` (centres undefined), the “% Inhibition” value is recorded as 0% and the Z score was 0.07.

On to `CCCN1CCC(N2C[C@H](NC3CCC(CC)CC3)C[C@H]2C(=O)NC)CC1` (some centres undefined), for which the “% Inhibition” value is listed as -3% and the Z score was found to be 0.59.

The values are drawn from ChEMBL document CHEMBL5308541, “MAIP: An Open-Source Tool to Enrich High-Throughput Screening Output and Identify Novel, Druglike Molecules with Antimalarial Activity” (ACS Med Chem Lett, 2023).
